“And” between values parts separate entries of the source, which are not always exact repeats. Identical values can stand only once. Some compounds were tested as several samples or in several runs, with calls that do not always agree. The source made the active and inactive calls. Unless noted, calls come from the whole dose curve; as a rule, active = well fitted curve in the direction sought with a large enough effect in the repeat runs; inconclusive = weak or mixed curves; inactive = no such curve, though single readings can be large; an effect the other way counts as inactive or inconclusive.
Key:
[1] = qHTS assay for small molecule agonists of the p53 signaling pathway (AID 651631; calls by dose curve; note: nearly all actives have a fitted effect of over 15% in size; for activation: % is set by controls: 0 for no effect and ±100 for the full control effect); settings: HCT-116 p53RE-bla reporter, beta-lactamase FRET ratio, 16 h; activation: at 73.3 µM (top of the series) unless noted
Procedure, shortened: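 HCT-116 cells carrying a beta-lactamase reporter under p53 response elements were dosed with compound for 16 h at 37 °C. LiveBLAzer B/G FRET substrate was then added for 2 h at room temperature, and fluorescence intensity was read to detect pathway agonism.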

[2] = qHTS assay for small molecule disruptors of the mitochondrial membrane potential (AID 720635); settings: HepG2 mitochondrial membrane potential, Mito-MPS dye ratio; ratio activity, negative = MMP loss: at 83.2 µM (top of the series) unless noted
Procedure, shortened: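 HepG2 cells exposed to compound 1 hr at 37C, then Mito-MPS dye 30 min. Ratio read of aggregate (540/590 nm) versus monomer (490/535 nm) fluorescence.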

[3] = target: Glucocorticoid receptor (Homo sapiens) (UniProt P04150); test: qHTS assay to identify small molecule antagonists of the glucocorticoid receptor (GR) signaling pathway (AID 720692; active = well fitted inhibition curve with a large enough effect in the signal ratio in the repeat runs, not every such curve was filed as active; inconclusive = weak or mixed curves, or effect the other way; inactive = no such curve, though single readings can be large or run the other way; the % refers to the signal ratio); settings: GR-bla HeLa, beta-lactamase FRET ratio, dexamethasone-stimulated, 18 h; activity change, negative = inhibition: at 58.5 µM (top of the series) unless noted
Sequence of UniProt P04150 (P04150 whole entry, looked up): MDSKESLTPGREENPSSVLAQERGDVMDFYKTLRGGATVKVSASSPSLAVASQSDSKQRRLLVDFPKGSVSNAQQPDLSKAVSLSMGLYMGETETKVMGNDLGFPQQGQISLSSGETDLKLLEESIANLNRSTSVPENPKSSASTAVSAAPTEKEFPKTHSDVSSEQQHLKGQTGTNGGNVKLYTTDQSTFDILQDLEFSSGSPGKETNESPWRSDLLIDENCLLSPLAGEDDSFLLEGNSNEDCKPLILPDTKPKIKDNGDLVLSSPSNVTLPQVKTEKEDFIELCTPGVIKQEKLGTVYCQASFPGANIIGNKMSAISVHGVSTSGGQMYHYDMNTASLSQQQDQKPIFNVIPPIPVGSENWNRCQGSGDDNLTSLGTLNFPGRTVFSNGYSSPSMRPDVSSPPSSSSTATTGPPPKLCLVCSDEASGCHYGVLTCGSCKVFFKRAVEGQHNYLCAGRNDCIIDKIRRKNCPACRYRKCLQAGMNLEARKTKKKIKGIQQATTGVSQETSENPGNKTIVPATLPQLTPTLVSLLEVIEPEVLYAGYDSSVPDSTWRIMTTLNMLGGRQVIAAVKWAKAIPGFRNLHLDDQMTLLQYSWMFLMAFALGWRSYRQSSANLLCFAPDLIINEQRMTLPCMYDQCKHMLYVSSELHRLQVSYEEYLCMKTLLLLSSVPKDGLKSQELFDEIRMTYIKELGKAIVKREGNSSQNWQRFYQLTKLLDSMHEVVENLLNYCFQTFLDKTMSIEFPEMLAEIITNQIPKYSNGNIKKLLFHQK
Procedure, shortened: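 HeLa GR-bla cells; cmpd + dex 5 nM final, 18 h 37 C; LiveBLAzer B/G FRET substrate 2 h RT; fluorescence intensity read. Antagonist mode, qHTS.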

[4] = qHTS assay to identify small molecule antagonists of the glucocorticoid receptor (GR) signaling pathway - cell viability counter screen (AID 720693); settings: GR-bla HeLa viability, CellTiter-Glo luminescence, 18 h, with 5 nM dexamethasone present; viability change, negative = cytotoxic: at 58.5 µM (top of the series); note: nearly all actives have a fitted effect of over 55% in size; for viability change, negative = cytotoxic: % is set by controls: 0 for no effect and ±100 for the full control effect
[5] = qHTS assay for identifying genotoxic compounds that show differential cytotoxicity against isogenic chicken DT40 cell lines with known DNA damage response pathways - Rev3 mutant cell line (AID 743014); settings: chicken DT40 Rev3-/- viability, CellTiter-Glo, 40 h; activity, negative = cytotoxicity: at 68.4 µM (top of the series) unless noted; note: nearly all actives have a fitted effect of over 55% in size
[6] = test system: thyroid hormone receptor (rat, GH3 cells); test: qHTS assay to identify small molecule agonists of the thyroid receptor (TR) signaling pathway (AID 743066; calls by dose curve; for activation: % is set by controls: 0 for no effect and ±100 for the full control effect); settings: GH3.TRE-Luc cells, TR agonist luciferase, 24 h; activation: at 83.9 µM (top of the series) unless noted
[7] = qHTS assay to identify small molecule antagonists of the estrogen receptor alpha (ER-alpha) signaling pathway - cell viability counter screen (AID 743074; calls by dose curve;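 note: HEK293 cells carrying ER-alpha-UAS-bla reporter stimulated with 17beta-estradiol; nearly all actives have a fitted effect of over 45% in size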; for activity, negative = cytotoxicity: % is set by controls: 0 for no effect and ±100 for the full control effect)
[8] = qHTS assay to identify small molecule antagonists of the estrogen receptor alpha (ER-alpha) signaling pathway using the BG1 cell line (AID 743080; calls by dose curve; note: nearly all actives have a fitted effect of over 25% in size); settings: BG1Luc4E2 ERE-luciferase antagonist mode, luminescence; activity change, negative = inhibition: at 70.3 µM (top of the series) unless noted
Procedure, shortened: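 Antagonist mode: compounds in DMSO were pinned onto BG1-Luc-4E2 cells alongside 17beta-estradiol agonist, incubated 21.5 h, and ERE-driven luciferase measured with ONE-Glo. Cytotoxicity was multiplexed using CellTiter-Fluor fluorescence.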

[9] = qHTS assay to identify small molecule antagonists of the estrogen receptor alpha (ER-alpha) signaling pathway using the BG1 cell line - cell viability counter screen (AID 743081); settings: BG1Luc4E2 viability, CellTiter-Fluor, 22 h; activity change, negative = cytotoxicity: at 70.3 µM (top of the series) unless noted;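 note: compound given together with 17beta-estradiol as the ER stimulus; nearly all actives have a fitted effect of over 45% in size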
[10] = target: Glucocorticoid receptor (Homo sapiens) (UniProt P04150); test: qHTS assay to identify small molecule agonists of the glucocorticoid receptor (GR) signaling pathway (AID 720691; active = well fitted activation curve with a large enough effect in the signal ratio in the repeat runs, not every such curve was filed as active; inconclusive = weak or mixed curves, or effect the other way; inactive = no such curve, though single readings can be large or run the other way; the % refers to the signal ratio); settings: GR-bla HeLa, beta-lactamase reporter ratio, 18 h; activation: at 62.4 µM (top of the series) unless noted
Procedure, shortened: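 Fluorescence intensity from LiveBLAzer B/G FRET substrate (2 h, room temperature) reports beta-lactamase expression driven by the glucocorticoid response element in GR-bla HeLa cells after 18 h compound exposure at 37 C.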

[11] = qHTS assay to identify small molecule antagonists of the androgen receptor (AR) signaling pathway - cell viability counter screen (AID 743033; note: nearly all actives have a fitted effect of over 45% in size); settings: AR-bla HEK293 viability, CellTiter-Glo luminescence, 16 h; activity change, negative = cytotoxicity: at 58.5 µM (top of the series) unless noted
[12] = qHTS assay to identify small molecule antagonists of the androgen receptor (AR) signaling pathway using the MDA cell line - cell viability counter screen (AID 743041; note: nearly all actives have a fitted effect of over 45% in size); settings: MDA-kb2 viability, CellTiter-Fluor, 16 h, cells co-treated with R1881 androgen agonist; viability change, negative = cytotoxic: at 70.3 µM (top of the series)
Procedure, shortened: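 Same-well cytotoxicity was assessed by CellTiter-Fluor in MDA-kb2 AR-luc cells after 16 h of compound treatment under R1881 agonism.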

[13] = qHTS assay to identify small molecule antagonists of the thyroid receptor (TR) signaling pathway - cell viability counter screen (AID 743064); settings: GH3.TRE-Luc viability, CellTiter-Fluor, 24 h; activity change, negative = cytotoxic: at 70.3 µM (top of the series) unless noted; note: nearly all actives have a fitted effect of over 50% in size
Procedure, shortened: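 GH3.TRE-Luc rat pituitary cells dosed after 4 hr plating, co-stimulated with T3 at 1 nM final, incubated 23.5 h at 37 C. Viability measured in the same wells by CellTiter-Fluor fluorescence after 30 min further at 37 C.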

[14] = target: Estrogen receptor (Homo sapiens) (UniProt P03372); test: qHTS assay to identify small molecule antagonists of the estrogen receptor alpha (ER-alpha) signaling pathway (AID 743069; active = well fitted curve in the direction sought with a large enough effect in the signal ratio in the repeat runs, not every such curve was filed as active; inconclusive = weak or mixed curves, or effect the other way; inactive = no such curve, though single readings can be large or run the other way; the % refers to the signal ratio); settings: HEK293 ER-alpha-UAS-bla, beta-lactamase ratio, antagonist mode; activity, negative = inhibition: at 69.4 µM (top of the series) unless noted
Sequence of UniProt P03372 (P03372 whole entry, looked up): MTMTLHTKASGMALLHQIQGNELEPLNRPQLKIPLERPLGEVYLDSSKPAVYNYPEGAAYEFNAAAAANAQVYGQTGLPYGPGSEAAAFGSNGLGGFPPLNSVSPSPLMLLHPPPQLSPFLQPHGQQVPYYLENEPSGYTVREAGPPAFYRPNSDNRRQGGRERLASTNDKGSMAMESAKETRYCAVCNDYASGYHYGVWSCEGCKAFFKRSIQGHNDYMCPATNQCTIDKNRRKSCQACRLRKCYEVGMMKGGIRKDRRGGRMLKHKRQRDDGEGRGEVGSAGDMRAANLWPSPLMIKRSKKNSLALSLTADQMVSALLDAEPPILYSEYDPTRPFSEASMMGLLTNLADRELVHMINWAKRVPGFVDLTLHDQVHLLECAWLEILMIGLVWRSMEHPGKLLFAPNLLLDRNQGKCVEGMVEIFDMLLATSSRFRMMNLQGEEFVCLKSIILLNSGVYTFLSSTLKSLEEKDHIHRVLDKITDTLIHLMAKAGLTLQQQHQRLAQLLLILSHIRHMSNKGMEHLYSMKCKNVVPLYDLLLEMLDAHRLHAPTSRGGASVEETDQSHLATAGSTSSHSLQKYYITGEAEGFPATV
Procedure, shortened: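 Reporter cells (ER-alpha-bla, HEK293 background) are conditioned overnight in stripped-serum medium (2% charcoal-stripped FBS). Compound and 17beta-estradiol exposure runs 18 hr at 37C, 5% CO2.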

[15] = target: Estrogen receptor (Homo sapiens) (UniProt P03372); test: qHTS assay to identify small molecule agonists of the estrogen receptor alpha (ER-alpha) signaling pathway using the BG1 cell line (AID 743079); settings: BG1Luc4E2 cells, ERE-luciferase agonist, 22 h; activation: at 70.3 µM (top of the series) unless noted; note: nearly all actives have a fitted effect of over 20% in size
[16] = qHTS assay to identify aromatase inhibitors - cell viability counter screen (AID 743084); settings: MCF-7 aro ERE viability, CellTiter-Fluor, 24 h; activity change, negative = cytotoxicity: at 70.3 µM (top of the series) unless noted;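 note: cells stimulated with testosterone during compound exposure; nearly all actives have a fitted effect of over 55% in size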
[17] = target: Peroxisome proliferator-activated receptor gamma (Homo sapiens) (UniProt P37231); test: qHTS assay to identify small molecule agonists of the peroxisome proliferator-activated receptor gamma (PPARg) signaling pathway (AID 743094; active = well fitted activation curve with a large enough effect in the signal ratio in the repeat runs, not every such curve was filed as active; inconclusive = weak or mixed curves, or effect the other way; inactive = no such curve, though single readings can be large or run the other way; the % refers to the signal ratio); settings: HEK293H PPARg-UAS-bla, beta-lactamase FRET ratio, 17 h; activation: at 57 µM (top of the series) unless noted
Sequence of UniProt P37231 (P37231 whole entry, looked up): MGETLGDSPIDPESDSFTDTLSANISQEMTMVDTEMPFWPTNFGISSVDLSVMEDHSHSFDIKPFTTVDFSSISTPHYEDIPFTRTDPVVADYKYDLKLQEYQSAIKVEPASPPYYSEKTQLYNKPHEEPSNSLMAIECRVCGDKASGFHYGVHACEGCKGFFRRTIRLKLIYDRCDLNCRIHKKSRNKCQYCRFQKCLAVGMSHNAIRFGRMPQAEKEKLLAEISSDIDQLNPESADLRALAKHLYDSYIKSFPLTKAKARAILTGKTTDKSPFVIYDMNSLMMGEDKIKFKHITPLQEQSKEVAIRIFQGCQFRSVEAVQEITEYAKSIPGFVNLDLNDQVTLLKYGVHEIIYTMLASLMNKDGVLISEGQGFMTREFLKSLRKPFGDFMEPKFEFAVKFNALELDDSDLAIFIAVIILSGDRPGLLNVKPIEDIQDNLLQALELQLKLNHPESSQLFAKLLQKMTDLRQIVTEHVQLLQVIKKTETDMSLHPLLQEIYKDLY
Procedure, shortened: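 Beta-lactamase FRET fluorescence was the read-out after a 1 h room-temperature substrate step, following 17 h compound treatment at 37C of HEK293H cells expressing a UAS-driven bla reporter responsive to PPARg.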

[18] = qHTS assay for identifying genotoxic compounds that show differential cytotoxicity against isogenic chicken DT40 cell lines with known DNA damage response pathways - wild type cell line (AID 743012); settings: DT40 wild type chicken cells viability, CellTiter-Glo, 40 h; activity change, negative = cytotoxicity: at 68.4 µM (top of the series) unless noted; note: nearly all actives have a fitted effect of over 60% in size
Procedure, shortened: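 Wild type DT40, 300 cells/well, ~0.5 h settle at 37 C/5% CO2; compounds in DMSO added by pintool; 40 h at 37 C/5% CO2; CellTiter-Glo, 30 min RT; luminescence.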

[19] = qHTS assay for identifying genotoxic compounds that show differential cytotoxicity against isogenic chicken DT40 cell lines with known DNA damage response pathways - Rad54/Ku70 mutant cell line (AID 743015); settings: DT40 Rad54/Ku70 mutant viability, CellTiter-Glo, 40 h; activity change, negative = cytotoxicity: at 66.8 µM (top of the series) unless noted; note: nearly all actives have a fitted effect of over 60% in size
Potency is the fitted concentration of half-maximal effect; tags give direction and shape of the fitted curve or compound fluorescence and quenching.

CC[C@H]1NC(=O)[C@@H](NC(=O)c2ncccc2O)[C@@H](C)OC(=O)[C@H](c2ccccc2)NC(=O)[C@@H]2CC(=O)CCN2C(=O)[C@H](Cc2ccccc2)N(C)C(=O)[C@@H]2CCCN2C1=O
inactive: Potency [1] | Potency [4] | Potency [6] | Potency [7] | Potency [8] | Potency [9]
inconclusive: Potency [2] 0.298 µM [single point] | Potency [3] 15.1 µM [inhibitor, partial curve, poor fit] | Potency [5] 13.3 µM [rising, partial curve, poor fit]

CC1(S(=O)(=O)O)CC(=O)c2ccccc2C1=O (configuration not stated)
active: Potency [1] 21.1 µM | Potency [5] 11.9 µM | Potency [13] 13.3 µM | Potency [8] 33.5 µM
inconclusive: Potency [2] 10.6 µM [activator, full curve] | Potency [10] 26.8 µM [cytotoxic] | activity change, negative = inhibition [3] 18.9% | Potency [11] 8.49 µM [cytotoxic, full curve, poor fit] | Potency [12] 33.5 µM [cytotoxic, single point] | Potency [6] 16.8 µM [inhibitor, partial curve, poor fit] | Potency [14] 26.8 µM [fluorescent, single point] | Potency [15] 29.8 µM [inhibitor, single point] | Potency [16] 29.8 µM [cytotoxic, single point] | Potency [17] 26.8 µM

NC[C@@H]1CC[C@@H](N)[C@@H](O[C@H]2[C@H](O)[C@@H](O[C@H]3O[C@H](CO)[C@@H](O)[C@H](N)[C@H]3O)[C@H](N)C[C@@H]2N)O1
active: Potency [15] 11.9 µM
inactive: Potency [1] | Potency [2] | Potency [3] | Potency [18] | Potency [5]
inconclusive: Potency [11] 0.003 µM [cytotoxic, full curve, poor fit]

CC(C)[C@@H](C)/C=C/[C@@H](C)[C@H]1CC[C@H]2/C(=C/C=C3\C[C@@H](O)CC[C@@H]3C)CCC[C@]12C
inactive: Potency [6] | Potency [8] | Potency [17]
inconclusive: Potency [1] 5.31 µM [rising, full curve, poor fit] | Potency [2] 31.2 µM [inhibitor, single point] | Potency [18] 33.5 µM [cytotoxic, single point] | Potency [5] 33.5 µM [cytotoxic, single point] | Potency [19] 33.5 µM [cytotoxic, single point]

COC(=O)C[C@](O)(CCCC(C)(C)O)C(=O)O[C@@H]1C(OC)=CC23CCCN2CCc2cc4c(cc2[C@H]13)OCO4 (some centres not stated)
inconclusive: Potency [2] 106 nM [activator, full curve] and 133 nM [activator, full curve] | Potency [11] 75.6 nM [cytotoxic, full curve] and 23.9 nM [cytotoxic, full curve] | Potency [6] 0.0376 µM [inhibitor, partial curve, poor fit] | activation [6] -7.44% [phenotype inactive] | Potency [15] 94.4 nM [inhibitor, full curve] and 75 nM [inhibitor, full curve] | Potency [9] 0.119 µM [cytotoxic, full curve] | Potency [16] 188 nM [cytotoxic, full curve] and 211 nM [cytotoxic, full curve] | activation [17] -18.9% and -0.0269%
active: Potency [1] 0.0335 µM | Potency [3] 0.169 µM | Potency [4] 1.2 µM and 1.07 µM | Potency [5] 21.1 nM and 26.6 nM | Potency [12] 0.0531 µM | Potency [13] 0.0596 µM | Potency [14] 674 nM [inconclusive] and 1.2 µM [inconclusive]

CC(C)=CCC/C(C)=C/CC/C(C)=C/CC/C(C)=C/CC1=C(C)C(=O)c2ccccc2C1=O
inconclusive: Potency [1] 33.5 µM | Potency [5] 33.5 µM [cytotoxic] and 33.5 µM [cytotoxic, single point] | Potency [19] 33.5 µM [cytotoxic, single point] | Potency [13] 2.98 µM [rising, single point] | Potency [14] 23.9 µM | Potency [7] 10.7 µM [cytotoxic, full curve]
active: Potency [8] 9.44 µM
inactive: Potency [17]
inactive and 13.3 µM (active): Potency [2]
